The source gives no read counts; variants with many changes may rest on few reads.
B1: LINE1-mini (parent)
chain: GGCAGAGCUCAACACAGCGUGGCAAAGUGGCUGUGGCUAGACUGCC

Variants of: B1
Experiment: self-cleavage, relative activity (ratio to wild type); higher = more cleavage; in vitro, sequencing; the parent is a self-cleaving ribozyme

Row | Variant | self-cleavage
1 | U9A G27C U32G A39C | 0.24
2 | G5U A12C A39U G40U | 0.01
3 | G21A C23G G29C C31A G36C | 0.05
4 | G2A U20A C31G | 0.11
5 | C3G A11U C23U A25U | 0.04
6 | U20A A24U C37U | 0
7 | A12G C18U C23A A26G U28G G33A G36C | 0.02
8 | A11G A24G G27A C45A | 0.03
9 | A6U G29U A39G | 0.19
10 | G5U C8G A11G G44A | 0.04
11 | A16U G27A G40A | 0.05
12 | G7C C15U G21A C31G | 0.1
13 | U20G C31A A41U | 0.05
14 | C8G C13U G40U | 0.02
15 | U20A C23U U28G | 1.4
16 | G7U G19A G27A C46A | 0.02
17 | C31G U38C A39G | 0.03
18 | G2C C8U G19U | 0.1
19 | A12U G36C G44A | 0.05
20 | G5U G7C A14G G27U | 0.04
21 | A11U G27C A41U | 0.15
22 | C15A G22U U43C | 0.02
23 | C3G G17A G27A C46A | 0.05
24 | C3A G29U C31U | 0.06

Row | Variant | self-cleavage
25 | C8U C23G U34A | 0.03
26 | G35C C37G G40U A41U C42G | 0
27 | G5C C10A G17C G35A | 0.02
28 | C3U A4C G7U G19C U38G C42U | 0.02
29 | G2C C23A U28G | 0.11
30 | A11G C18G G21U | 0.03
31 | A25U G27U G40A | 0
32 | A11G C13A G36U C37U | 0.03
33 | G1A G2U G33U G35A G36U C45A | 0.01
34 | U9G G21C G29C A39C | 0.01
35 | C3A G7C A41U | 0.11
36 | C3G G22U G35C A39G | 0.04
37 | A4U C15G U28G U38A | 0.04
38 | C8A C15U G17U G29C | 0.2
39 | G7A C10A U34A | 0.01
40 | G29C C31U C37U | 0.11
41 | A4U C10G A25C G33U | 0.03
42 | G2C A14U G22C G27C U43G | 0.03
43 | C18G G29A G30U U32A G35U | 0.05
44 | U9A G19U G33C U38G G44A | 0.02
45 | G2A C10A C13G G33U | 0.01
46 | A26C G30U A39U | 1.6
47 | G7U U9C C10U | 0.02
48 | G1U G5A G7C A12U A14G C18G | 0.03

Row | Variant | self-cleavage
49 | A12G G21A G22A A24G G30U U34G | 0.02
50 | C10A U38C C42A | 0.01
51 | C10A C13G G35C U43C | 0.02
52 | A6C G7U A39U A41G | 0.51
53 | A4C A12G G35U | 0.03
54 | A14G A41G U43A G44U | 0.02
55 | G17C G30A U34C | 0.03
56 | G21U A26C C46A | 1.43
57 | G5A G27U G40C C45A | 0.04
58 | G2A A12U C13U C31A G35A | 0.04
59 | G30A G35A G40A G44A C45U | 0.05
60 | A4G G29U G44U | 0.66
61 | A12C C18A A26G G35A C42G C46G | 0.01
62 | G22U G35A U43C | 0.02
63 | C10U A12G A25G G27C C45G | 0.02
64 | G2U A4U C15U G29A | 0.05
65 | G2U A4U U20C A25G | 0
66 | G2A C10U A24C G30A C46A | 0.05
67 | C18A U20A G33C G35U | 0.02
68 | A4G C23G A24C C45A | 0.21
69 | C10G C13U A26U G36A C46A | 0.01
70 | U20C C23A G33A C46A | 0.15
71 | A4C C13A G21U C31A G36U G40A | 0.23
72 | C3G C10A A14G C42A | 0.02

Row | Variant | self-cleavage
73 | A6U C10G C13U A25G A26U U32A | 0.01
74 | G1C G2U U28A A41G | 0.02
75 | G1A G17C A39G C46A | 0.09
76 | G5A A11U G22U U32C | 0.04
77 | C10U G30U C31U G33U | 0.02
78 | G2A G27C C31G | 0.14
79 | G19C G30C G36A | 0.13
80 | G7A C23A C45U | 0.13
81 | A4G G19U C23A G44U | 0.19
82 | G19A C23A A26G U28A G30A C42U C46G | 0.08
83 | C8G G27U G29A | 0.03
84 | G1A C3G A14U A24G | 0.26
85 | G5A C10A U20C G33U C46A | 0.03
86 | A14C G29U G33A A39G | 0.02
87 | G7A A11U G21A G36U G44U | 0.03
88 | G2U A11G G22A G33U | 0.01
89 | G1A C8A A11C G27A U32C G36U | 0.04
90 | G2C G30U C31A | 0.11
91 | G5U C10A G35U A39U | 0.01
92 | G1U A4G U9A A26G | 0.01
93 | C10G C18G G19C G30A | 0.15
94 | A4C C15U C37U | 0.05
95 | A6G A16U U34G | 0.04
96 | G7U A16G G19A C31G G35A | 0.02

Row | Variant | self-cleavage
97 | C18U G27A U28A C31U G35U G44A | 0.01
98 | C3A A16C U20G G44A | 0.17
99 | U20A G30C C45G | 0.02
100 | A14U C18A C46U | 0.02
101 | G1U U9G G17C C18U G40C | 0.03
102 | C8U A14G A16C U32G | 0
103 | C18U G22U C45A | 0.38
104 | G5U A6U A12G A41U | 0.01
105 | G40C G44A C45A | 0.01
106 | G19C G29U G36U | 0.02
107 | G5C C42U C45U | 0.07
108 | G2C C10A C13A G21C | 0.01
109 | C18A G29U G36A | 0.1
110 | G2U G17U G21A | 0.01
111 | C10G U38A C45G | 0.02
112 | G19C C42G U43G | 0
113 | A4U C15G G22C | 0
114 | C18U G30U G40C A41G | 0.01
115 | G2C A14G C23A | 0.35
116 | C15A C23G G35C C37A | 0.33
117 | G1U A11G U20C C46A | 0.01
118 | U9C A11U G35U G36U A39G | 0
119 | G1A U9A A24U G27C G36A | 1.84
120 | G19C A24C G27C C42A | 0.02

Row | Variant | self-cleavage
121 | C8U A16U G17A G40A C42U | 0.08
122 | G7A A16G C31G | 0.01
123 | G1A A6U U32A U43C | 0.04
124 | G7C G17A C23U C31U | 0.05
125 | A4U A6U C10A C13A G17C C18G G35A | 0.02
126 | G2U A4U G7U U20G G27U G44C | 0.22
127 | A12G G22U G40C | 0
128 | G22A U28C G33U G35U | 0.08
129 | G1U C3U C8G A24G | 0.04
130 | A14G G27C U28G | 0.5
131 | C15U G35C C37G | 0.04
132 | C18U G22U U32C G35U | 0.04
133 | G2A C8A G33U U34C A41C C45U | 0.52
134 | G21C G22U C31G A41G | 0.03
135 | C3A C10A G30U C31U U32A C45G | 0.02
136 | G5U C13A G36U | 0.23
137 | A26U G30C C42G C45A | 0.02
138 | G1C G2U C8U C18U A25G C42G | 0.01
139 | A26U G27A G35A | 0.17
140 | C3U C15A G22U | 0.03
141 | G5A C10G G40U | 0
142 | G1C C37U C42A | 0.01
143 | A4U A14G G19C G21U C31U C37G | 0.03
144 | G1C A4C U32C G35U C42A | 0.02

Row | Variant | self-cleavage
145 | G2A C10A C18G | 0.03
146 | G5U U32C A41G | 0.02
147 | A4G G33A G44A C45G | 0.12
148 | A16C C23U A26U U34C C45G | 0.04
149 | G2C C3U C10A C18G | 0.11
150 | A14C U20A A26U G30C | 0.19
151 | G2C A4U G30U C46G | 0.07
152 | C3U G17U G19U A25G G36U C37G | 0.01
153 | A14U C15G U28A C31A | 0.02
154 | A12U C15G U38A A39U | 0.01
155 | C8G C15G G21C A41U | 0.04
156 | C3U A14U A24G | 0.07
157 | A24C C31G C37U A41U | 0.07
158 | A6C C31G G40C C42A | 0.01
159 | C18G G19U C23A C31U U32C G35C A41G G44U | 0.13
160 | U9A U20C G21C | 0.05
161 | U9G C10G A12C C13A G27U | 0
162 | C18U U43A C45A | 0
163 | G1U A14G G33C A41C U43C | 0.01
164 | C10A C18G G44A | 0.04
165 | G7C A16U C31U | 0.04
166 | G17U G29U C37A | 0.03
167 | G7U C18U G40U | 0.04
